Sequences and labels used below:
B1: LINE1-mini (parent)
chain: GGCAGAGCUCAACACAGCGUGGCAAAGUGGCUGUGGCUAGACUGCC

Read counts are not given, so values of variants with three or more changes are uncertain.

Variants of B1 are the subject of this series. Kind of series: self-cleavage, relative activity (ratio to wild type); higher = more cleavage; in vitro, sequencing; the parent is a self-cleaving ribozyme.
As to C37U A39C G40U, the self-cleavage is 0.08. Then G35C G36U A41G, with 0.12; and U34C C37U C42A, with 0.02; and C42U U43G C45A, with 0.04. On to U34G G44C C45G, for which the self-cleavage came out at 0.01.

On to C37G G40U C45A, for which the self-cleavage came to 0.11. For U43G C45A C46U the value was 0.02; for A39G G40U C46A, 0.05. Then G36U G40U C42A, with 0.05.

On to C37G U38G G40C, for which the self-cleavage turned out to be 0.04. Then G35U U38C G44C C45A C46G, with 0.07.

As to G36A U43G C45U, the self-cleavage amounted to 0.11.

With G36U G40C U43G, the self-cleavage amounted to 0.02.

With U38C U43C G44U, the self-cleavage is 0.03. For A39U G40A C46A the value was 0.07. Then A39G A41C G44U, with 0.05; and C37G C45A C46U, with 0.03; and U34G G35A C45G, with 0.05.

Take G36A A39G G44A: the self-cleavage came to 0.08. Take U34G A41U C45U: the self-cleavage turned out to be 0.06.

For the variant G40U U43C C45G, the self-cleavage turned out to be 0.4.

Turning to A41U G44U C45G, the self-cleavage stood at 0.1. As for G35C A41G C42A, the self-cleavage was 0.04. For G36A A39U G40U, the self-cleavage came out at 0.03. For G35A G36U U43C the value was 0.25; for G36C C37G A39U, 0.03. On to G35C C37G U43C G44U, for which the self-cleavage is 0.04.

Turning to G35A A41U U43A, the self-cleavage turned out to be 0.04. As for G40U A41C C45G, the self-cleavage is 0.17.

Turning to G36C U38C U43A, the self-cleavage was determined as 0.03. For G35C U38A G40A the value was 0.04; for U38G A39G C45G, 0.03; for U34G G35A C46U, 0.05. With U38G A39U G44U, the self-cleavage turned out to be 0.08. Then G35A G36A U38A, with 0.05. Take U43G G44A C46A: the self-cleavage was determined as 0.02.

As for G35A U38G A39C, the self-cleavage turned out to be 0. For G36C C37U A41G the value was 0.1; for G35C A39G A41U G44U, 0.01; for G36U G44C C46A, 0.06. As for U34C U43C C45A, the self-cleavage turned out to be 0.15. Take U38G A39C G40A: the self-cleavage turned out to be 0. For the variant G36A A41C C46A, the self-cleavage came out at 0.18. For U38C C42G C46U the value was 0.08. In the case of G36C G40C C46A, the self-cleavage was found to be 0.02. For U34C C42U G44C, the self-cleavage turned out to be 0.03. Then G36C A41C G44U, with 0.03. Turning to G35U A41C C45A, the self-cleavage came out at 0.01.

With G36A G40C C45A, the self-cleavage came to 0.07. For G35C C37G U38C C45G the value was 0.06; for U34C G35U A41U, 0.12. For C37A G40U C42A the value was 0.03; for U34G C37G G44A, 0.02; for C37U G40A G44C, 0.24. Then G36A U38C A39G, with 0.31. In the case of G36A C37A C45A, the self-cleavage came to 0.3.

Regarding G40C C42G G44C C46G, the self-cleavage was 0.07. C37A C45A C46U: the self-cleavage was 0.04.

Regarding G35A G36U C45U, the self-cleavage stood at 0.08. On to A41G U43A C45G, for which the self-cleavage was found to be 0.01.

G36U G40A U43A: the self-cleavage turned out to be 0.12. Then C37U G44U C45A, with 0.28; and G36A C42A C45U, with 0.09. For A39G G40A C46G the value was 0.02; for G36U C37U C42G, 0.02; for G36U C37U C42U, 0. For G36A C37G U38G, the self-cleavage amounted to 0.02. For U38G G40U G44A C46U, the self-cleavage was 0.13. Then G36C G40U A41U, with 0.21; and G35U C37A C42U, with 0.07; and G36A C37G G40U A41U, with 0.08.

In the case of G35U C37G C46A, the self-cleavage amounted to 0.02. For G36A A41U G44U, the self-cleavage turned out to be 0.02.

Turning to C37U U38A A39U G44U, the self-cleavage turned out to be 0.05.

In the case of U43C C45A C46U, the self-cleavage worked out at 0.1.

In the case of U34G G40U A41G, the self-cleavage turned out to be 0.04. For U34G G40C C46U the value was 0.01. Then G35U A39U G40A, with 0.09; and G36C A41U U43G, with 0.08; and G40U C42G G44U, with 0.09. In the case of G35U G36A A39G, the self-cleavage is 0.11. For G40U C42A G44U the value was 0.

For G40A C42A G44C, the self-cleavage is 0. Regarding C37U C45A C46G, the self-cleavage turned out to be 0.02. On to A39C G40U C45A, for which the self-cleavage is 0.03.

As for G40U G44C C45G, the self-cleavage was determined as 0.04. Regarding G35C G40U U43C, the self-cleavage was determined as 0. For G40U A41U G44C C46G the value was 0.03; for G36A U38A G40A, 0.55. Then U38A A39C G40U, with 0.03; and G35C U38A A41U, with 0.04; and G35C U38C A39G, with 0.06. Then A39G G40U C45A, with 0.07; and C37A A41U C42U C45U, with 0.02; and G35A G40U U43G, with 0.01.

In the case of U38C C42G C45U, the self-cleavage turned out to be 0.04. For U34C G35C C45A the value was 0.01. For A39U A41C C45A the value was 0.08.

In the case of G35U U38G A41G U43C, the self-cleavage stood at 0. For A39C G44U C45A, the self-cleavage turned out to be 0.03.

On to C37U A39U G40A, for which the self-cleavage was found to be 0.62.

As for C37A G44C C46G, the self-cleavage was 0.23. For C42A C45A C46U the value was 0.28; for G36U A39G C46G, 0; for A39U G40A G44C, 0.04. For G36C U38A G44U the value was 0. For A39U C45A C46U the value was 0.25; for G40A U43C C46G, 0.1; for U34C U38A A41C C46A, 0.01. With A41G C42U C46U, the self-cleavage was found to be 0.13.

With G36C U38G A39U G44A, the self-cleavage amounted to 0.3. For A39C G40U C42A the value was 0.1. For G36C G40C C42A, the self-cleavage turned out to be 0.01.

For the variant G36C G44U C46G, the self-cleavage was determined as 0.14. Turning to G35A C37U C42U, the self-cleavage was 0.02. For G35U C37G C42G U43C C46G the value was 0.05; for G36A A39U G44C, 0.1; for G36C C37A C46G, 0.03. A41G C45U C46U: the self-cleavage was 0.05. On to U34G C37A A39G, for which the self-cleavage stood at 0.01. Then U38A G40C C42A, with 0.04. As to G35C C37G U38C, the self-cleavage stood at 0. For G36A G40A G44C the value was 0.14. On to U43A G44U C45A, for which the self-cleavage came out at 0.25. Take C42G C45A C46A: the self-cleavage stood at 0.01. For G36C C37U C42A, the self-cleavage amounted to 0.09.

A39U G44C C46G: the self-cleavage worked out at 0.05. For the variant U38C G40U C45A, the self-cleavage worked out at 0.07. For G36A G40U C45U the value was 0.02. For C37U G40A C46G the value was 0.09; for U34G G35A G36A C37G A41U G44U, 0.01; for C42U C45G C46A, 0.04. Then C37U U38A G40U, with 0.49; and C42A U43G C45U, with 0.06.

With U34C U38C C46G, the self-cleavage turned out to be 0.03. Consider U34C C42G U43C, for which the self-cleavage amounted to 0.1. Then G35U A39U A41U C46A, with 0.1. As for G40C G44C C45U, the self-cleavage turned out to be 0.03.

Regarding A41U C42A C46G, the self-cleavage is 0.01.

For G36U C37A U38A C45G, the self-cleavage amounted to 0.76. Then C37U G40A U43A, with 0.02; and U34G G35U C45U, with 0.11. Then U34C C37A G40U, with 0.03; and U38A A41C C42U, with 0.04.

For G40U C42U U43A, the self-cleavage came out at 0.06. With G36C G44U C45G, the self-cleavage came to 0.04. For U38G U43A C46U the value was 0. G35C A39C C46A: the self-cleavage was 0.07.

Regarding A39C U43G C46U, the self-cleavage amounted to 0.03. For A41U C42G C45U C46U the value was 0; for C42U G44A C46U, 0.12; for G36U C42U U43A C45U, 0.01. For U34G G35U C42A U43G C46U the value was 0; for A39U C42A U43C G44U, 0.05; for C37A C45U C46G, 0.04. Turning to U34G U43A G44U, the self-cleavage came to 0.17. For C37G C42G G44C C46A the value was 0.03; for U38G C45A C46G, 0.04. Then C37G U38C C42U, with 0.08. Then G36U U43C C45G, with 0.04; and A39G C42A U43C, with 0.07; and C37U G40A A41U, with 0.1. Regarding U38C A39C C45A, the self-cleavage was 0.06. Then G36C A41C U43G, with 0.01. As for C37A G44C C45G, the self-cleavage is 0. As for G35C C42A C45U, the self-cleavage was determined as 0.01. Then C37U U38A G44C, with 0.02; and G35U A41G C46A, with 0.03. As for U34G G40U C42G U43A, the self-cleavage was found to be 0.15. Then U38G C42G U43A G44C, with 0.04; and G40C C42U C46A, with 0.07. For C37U G40C G44A the value was 0.06; for U38A A41U U43A, 0.07; for C37A C42U G44A, 0.04. Then G36U U43A C45U, with 0.17; and G35U C37A C46U, with 0.05; and U34G C42U C45U, with 0.01. Regarding U34G C42U C45G, the self-cleavage is 0.03. Turning to G35C G40U C46U, the self-cleavage was found to be 0.02. Turning to G36U A39G A41G, the self-cleavage worked out at 0.02. Then C37A G40C U43A, with 0.08; and G36A G40A G44U C45A, with 0.03. For U38C A39G G44U the value was 0.04.

The record behind these values is the RNAGym collection of RNA variant scans (doi:10.7554/elife.90254).
